In PubChem BioAssay AID1159614 (National Center for Advancing Translational Sciences (NCATS), 2016):
The whole screen tested about 45,000 compounds, of which about 65 (0.1%) were called active. The call rests on the fitted dose curve; in most records, active means well fitted activation curve with a large enough effect; inconclusive means small, poorly fitted or top-dose-only effect; inactive means no such curve, though single readings can be large or run the other way. The list shows a part of the results.

Molecular target: Galactocerebrosidase (Homo sapiens) (UniProt P54803)
Experiment: A Novel Cell-Based Assay to Identify Small Molecules for B -Galactocerebrosidase; further: 0% is about no effect; nearly all actives have a fitted effect of over 65% in size
Conditions: 145M-Twi-hGALC-G270D cells, HMU-beta-Gal fluorescence, 48 h; series mostly up to 57.5 µM; activation: at the top concentration
Method in brief: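 qHTS, 1536-well; 145M-Twi-hGALC-G270D cells (WT line also made) in DMEM/F12 + 10% FBS; compound incubation on live cells; HMU-β-gal 0.1 mM final, pH 5.2, NaTC; carbonate stop; fluorescence increase = enhanced residual activity.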

Sequence of UniProt P54803 (P54803 whole entry, looked up): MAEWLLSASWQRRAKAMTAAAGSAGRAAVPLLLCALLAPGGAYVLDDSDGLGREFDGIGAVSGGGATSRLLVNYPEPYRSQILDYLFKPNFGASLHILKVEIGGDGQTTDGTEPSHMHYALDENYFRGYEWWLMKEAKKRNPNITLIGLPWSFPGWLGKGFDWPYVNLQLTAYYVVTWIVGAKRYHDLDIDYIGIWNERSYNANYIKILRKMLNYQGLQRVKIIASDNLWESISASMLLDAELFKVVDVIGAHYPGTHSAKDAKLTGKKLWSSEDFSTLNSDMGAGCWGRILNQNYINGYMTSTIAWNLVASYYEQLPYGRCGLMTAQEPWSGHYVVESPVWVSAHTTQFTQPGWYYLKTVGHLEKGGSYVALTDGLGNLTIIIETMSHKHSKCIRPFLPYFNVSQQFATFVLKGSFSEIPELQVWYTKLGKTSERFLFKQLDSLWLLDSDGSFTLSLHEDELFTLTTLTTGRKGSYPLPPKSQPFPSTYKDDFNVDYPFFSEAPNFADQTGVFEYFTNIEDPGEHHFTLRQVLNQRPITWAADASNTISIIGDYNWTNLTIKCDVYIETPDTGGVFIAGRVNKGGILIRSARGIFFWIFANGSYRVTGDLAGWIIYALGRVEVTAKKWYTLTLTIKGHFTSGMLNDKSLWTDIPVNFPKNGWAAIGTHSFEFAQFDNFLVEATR

Structure (SMILES)	activation
Cc1cccn2c(=O)c3cc(C#N)c(=O)n(-c4nnc(SCc5ccc(F)cc5)s4)c3nc12	inactive: -13.7%
COc1ccc(NC(=O)c2cccn2-c2nnc(N3CCCCC3)s2)c(OC)c1	inactive: -14.7%
CCOC(=O)COc1cc(C)c(Cl)cc1C(=O)c1ccn2nc(-c3ccc(OC)cc3)cc2n1	inactive: 0.351%
O=C(CSc1ncc2c(n1)-c1cc(Cl)ccc1N(Cc1ccccc1)S2(=O)=O)NCCc1ccccc1	inactive: -9.22%
CS(=O)(=O)Nc1ccc(-c2nc3ccccc3s2)cc1	inactive: 0.399%
CCOC(=O)c1ccc(NC(=O)CSc2nc(-c3ccc(F)cc3)cc(C(F)(F)F)c2C#N)cc1	inactive: -13.7%
CCOc1ccc(NC(=O)C2=C(C)C(=O)OC23CCC(C)CC3)cc1 (stereo unspecified)	inactive: -5.59%
Cc1ccc(NC(=O)Nc2c(C)n(C)n(-c3ccccc3)c2=O)c(Cl)c1	inactive: -23.5%
COc1ccccc1NC(=O)c1ccc(-c2nc(COc3ccc(C)cc3)c(C)o2)cc1	inactive: -12.9%
CN(CCCN1c2ccccc2CCc2ccccc21)CC(=O)c1ccc(Cl)cc1	inactive: -11.7%
CCc1nn(CC(=O)NCCc2ccc(OC)c(OC)c2)c(=O)c2cc3occc3n12	inactive: -4.23%
CCCCOc1ccc(CNC(=O)CN2C(=O)CCn3nc(-c4cn(C)c5ccccc45)cc32)cc1	inactive: -15.7%
COc1ccc(NC(=O)C2CCCN(S(=O)(=O)c3c(C)[nH]c(=O)[nH]c3=O)C2)cc1 (stereo unspecified)	inactive: 6.97%
CCOc1cccc(CNC(=O)c2ccc(N3CCCC3)c(NC(=O)Nc3ccccc3CC)c2)c1	inactive: -25.1%
CCOC(=O)c1c(C)[nH]c(C)c1S(=O)(=O)N(C)CC(=O)NCc1ccc(C)cc1	inactive: -3.69%
COc1ccc(C2CC(=O)c3cc(-c4nc(-c5ccc(C)cc5)cs4)c(=O)[nH]c3C2)cc1 (stereo unspecified)	inactive: -12.7%
CC(C)c1ccc(NC(=O)Cc2ccc(NC(=O)N3CCCCc4ccccc43)cc2)cc1	inactive: -1.01%
CCC1CN(C(=O)NCc2ccc(F)cc2)c2cc(Cl)ccc2O1 (stereo unspecified)	inactive: -15.4%
CCOc1ccc(/C=C/C(=O)Nc2sc3c(c2C(=O)OC)CCCC3)cc1	inactive: -7.36%
Nc1nc(Nc2cccc(Cl)c2)sc1C(=O)c1ccc(F)cc1	inactive: -5%
COc1ccc(-c2nn(-c3ccc(C)c(Cl)c3)c3c2cnc2cc(OC)c(OC)cc23)cc1	inactive: -7.67%

Structure (SMILES)	activation
COc1cc(OC)c(NC(=O)CC(C)S(=O)(=O)c2ccc3c(c2)NC(=O)CO3)cc1Cl (stereo unspecified)	inactive: -5.35%
CCn1cc(S(=O)(=O)c2ccc(OC)cc2)c(=O)c2cc(F)c(N3CCCCCC3)cc21	inactive: -19.3%
COc1ccc(S(=O)(=O)NCCc2csc(-c3cccc(F)c3)n2)cc1OC	inactive: -29.4%
CCc1ccc2oc(-c3cccc(NC(=O)COc4ccccc4Cl)c3)nc2c1	inactive: -15.5%
CCOc1ccc2nc(N3CCCC(C(=O)Nc4ccc(CC)cc4)C3)sc2c1 (stereo unspecified)	inactive: -13.7%
CCN(CC)S(=O)(=O)c1ccc2c(c1)N(CC(=O)NCCc1ccccc1)C(=O)CO2	inactive: -7.73%
CCN1CCN(c2nc3c(S(=O)(=O)c4ccc(C)cc4)nnn3c3ccsc23)CC1	inactive: 7.25%
CCC(Oc1ccccc1)C(=O)Nc1cc(-c2ccccc2F)nn1-c1ccccc1 (stereo unspecified)	inactive: -31.6%
Cc1ccc(NC(=O)Cn2c(=O)nc(-c3ccccc3)c3ccccc32)cc1	inactive: -15%
Cc1cccc(C(=O)n2nc(-c3cccnc3)nc2NCc2ccc(F)cc2)c1	inactive: -28.5%
Cc1c(C(=O)NCc2cccc(F)c2)oc2c1-c1[nH]ncc1CC2	inactive: 7.68%
CCCCOc1ccc(CNC(=O)c2cnc3sc(N4CCCCCC4)nn3c2=O)cc1	inactive: -11.7%
CCCCNC(=O)CCn1nc(-c2ccc(Cl)cc2)c2ccccc2c1=O	inactive: -15.3%
CCOc1ccc(NC(=O)CSc2nc3ccsc3c(=O)n2CC)cc1	inactive: -5.59%
COc1cc(NC(=O)C(CC(C)C)N2Cc3ccccc3C2=O)cc(OC)c1 (stereo unspecified)	inactive: -28.2%
CCN(CC)C(=O)c1ccc2c(c1)N(Cc1ccccc1F)C(=O)c1ccccc1S2=O (stereo unspecified)	inactive: 2.49%
CC(C)(C)c1ccc(C(=O)Nc2ccc(NC(=O)c3ccc(Cl)c(Cl)c3)cc2)cc1	inactive: -30.4%
CCC(=O)N1CCc2cc(S(=O)(=O)NC(Cc3ccccc3)C(=O)NCc3ccccc3OC)ccc21 (stereo unspecified)	inactive: -22.1%
COc1ccc(-c2cc(C)no2)cc1S(=O)(=O)N1CCCC(C)C1 (stereo unspecified)	inactive: -20.8%
CC(C)CCNC(=O)c1cc(-c2ccc(Br)s2)nc2ccccc12	inactive: -1.78%
Cn1c(=O)[nH]c(=O)c2c1nc(CN1CCN(c3ccccc3)CC1)n2Cc1c(F)cccc1Cl	inactive: 1.23%

Structure (SMILES)	activation
Cc1cccc(NC(=O)c2ccc3[nH]c(C)cc(=O)c3c2)c1	inactive: -13.3%
COc1cccc(NC(=O)Nc2ccc3snnc3c2)c1	inactive: -5.47%
Cc1c(C(=O)N2CCCCCC2)c(S(=O)(=O)Nc2ccc(OC(F)(F)F)cc2)c(C)n1C	inactive: -20%
O=C1CC(c2ccccc2)Cc2[nH]c(=O)c(C(=O)Nc3ccc(F)cc3)cc21 (stereo unspecified)	inactive: -1.86%
CCOc1ccc(CCNC(=O)CCCc2nnc3n(CCCOC)c(=O)c4sccc4n23)cc1	inactive: -7.4%
CCOC(=O)c1ccc(NC(=O)CSc2cc(-c3ccccc3)nc(C)n2)cc1	inactive: -11.9%
Cc1c(-c2ccc(Cl)cc2)c(=O)oc2c(CN3CCN(C)CC3)c(O)ccc12	inactive: -9.71%
O=C(CNC(=O)c1ccccc1Cl)OCc1cc(=O)n2nc(C3CC3)sc2n1	inactive: -7.35%
CC(C)CC(=O)Nc1nnc(S(=O)(=O)N(C)c2ccc(Cl)cc2)s1	inactive: 11.8%
Cc1ccc(C)c(N(C)C(=O)CCNC(=O)Cn2cnc3ccccc3c2=O)c1	inactive: -4.69%
CC(C)c1nn2c(=O)cc(COC(=O)c3cccc(NC(=O)c4ccccc4F)c3)nc2s1	inactive: -7.61%
O=S(=O)(c1cccc2cnccc12)N1CCCNCC1	inactive: -16%
CCOc1ccc(C2c3c(-c4ccccc4O)n[nH]c3C(=O)N2Cc2cccnc2)cc1OC (stereo unspecified)	inactive: -9.95%
O=C(Nc1cccc(Cl)c1)C(Cc1ccccc1)n1cccc1 (stereo unspecified)	inactive: -3.55%
CCC1Oc2ccc(C)cc2N(CC(=O)NCc2ccc(F)cc2)C1=O (stereo unspecified)	inactive: -18.1%
COc1cccc2sc(N(Cc3cccnc3)C(=O)C3CCCCC3)nc12	inactive: -10.6%
CCOC(=O)C1CCCN(C(=O)c2cc3c(Cl)nc4ccccc4c3s2)C1 (stereo unspecified)	inactive: -11%
CCOC(=O)c1ccc2c(c1)sc1nc(-c3ccc(OCC)cc3)cn12	inactive: -11.9%
COc1cccc(CNC(=O)Cn2c(=O)cc(C(F)(F)F)c3c(C)nn(C)c32)c1OC	inactive: -11.8%
